Results from the antibiotic and cytotoxicity screens of Wong et al. (2023).
Some of the results follow.

Each compound was assayed on HSkMC (human skeletal muscle cells) (assay: cytotoxicity call (relative viability < 0.9)). Conditions: 10 µM.
In the case of `C[C@@H]1CN([C@H](C)CO)C(=O)c2cccc(NC(=O)c3ccc(-c4nccs4)cc3)c2O[C@@H]1CN(C)S(C)(=O)=O`, the cytotoxicity call was “inactive”.
`COc1ccc(S(=O)(=O)N(C)C[C@H]2OCCCC[C@@H](C)Oc3ccc(NC(=O)CCC(F)(F)F)cc3C(=O)N([C@H](C)CO)C[C@@H]2C)cc1` was tested, and the cytotoxicity call was “inactive”.
In the case of `COCC(=O)Nc1ccc2c(c1)[C@H]1C[C@@H](CC(=O)N3CCOCC3)O[C@H](CO)[C@H]1O2`, the cytotoxicity call was “inactive”.
For `NC1CCC(c2ccccc2)CC1` (configuration not stated), the cytotoxicity call was “inactive”.
In the case of `C[C@H](CO)N1C[C@H](C)[C@H](CN(C)S(=O)(=O)c2cn(C)cn2)Oc2c(NC(=O)C3CCOCC3)cccc2C1=O`, the cytotoxicity call was “inactive”.
`Cc1noc(C)c1NC(=O)N(C)C[C@@H]1Oc2c(NS(=O)(=O)c3c(C)noc3C)cccc2C(=O)N([C@H](C)CO)C[C@@H]1C` was tested, and the cytotoxicity call was “inactive”.
`C[C@H](CO)N1C[C@H](C)[C@H](CN(C)Cc2ccccc2)OCCCC[C@H](C)Oc2ccc(NC(=O)Nc3cccc4ccccc34)cc2C1=O` was tested, and the cytotoxicity call was “inactive”.
In the case of `Cc1ccc(S(=O)(=O)Nc2ccc3c(c2)C(=O)N([C@@H](C)CO)C[C@@H](C)[C@@H](CN(C)CC2CC2)O3)cc1`, the cytotoxicity call was “inactive”.
`C[C@H](CO)N1C[C@H](C)[C@@H](CN(C)CC2CCCCC2)OCCCC[C@H](C)Oc2ccc(NC(=O)Nc3cccc4ccccc34)cc2C1=O` was tested, and the cytotoxicity call was “inactive”.
`COc1ccc([C@@H](O)[C@@H](CCO)OC)cc1O` was tested, and the cytotoxicity call was “inactive”.
With `COc1ccc2c3c(n(c2c1)C)[C@@H](CO)N(C[C@]13CCN(CC1)C(=O)Nc1c(noc1C)C)C(=O)Nc1ccc(cc1)F` the cytotoxicity call was “inactive”.
In the case of `C[C@@H]1CCCCO[C@H](CN(C)S(=O)(=O)c2ccc(Cl)cc2)[C@@H](C)CN([C@H](C)CO)C(=O)c2cc(NC(=O)Nc3ccccc3)ccc2O1`, the cytotoxicity call was “inactive”.
In the case of `C[C@H]1CCCCO[C@@H](CN(C)C(=O)NC2CCCCC2)[C@@H](C)CN([C@@H](C)CO)C(=O)c2cc(NS(=O)(=O)c3ccccc3)ccc2O1`, the cytotoxicity call was “inactive”.
For `C[C@@H]1CCCCO[C@H](CN(C)C)[C@H](C)CN([C@H](C)CO)C(=O)c2cc(NC(=O)Nc3ccc(C(F)(F)F)cc3)ccc2O1`, the cytotoxicity call was “inactive”.
In the case of `C[C@H]1CN([C@@H](C)CO)C(=O)c2c(c3ccccc3n2C)-c2ccccc2CO[C@@H]1CN(C)Cc1cccc(O)c1`, the cytotoxicity call was “inactive”.
With `Cc1cc(NC(=O)C(=O)NC[C@H]2CCCO2)n(-c2nc(=O)cc(C)[nH]2)n1` the cytotoxicity call was “inactive”.
For `C[C@H]1CN([C@@H](C)CO)C(=O)c2cc(NC(=O)Nc3ccc(F)cc3)ccc2O[C@H]1CN(C)Cc1ccc(C(=O)Nc2ccccc2N)cc1`, the cytotoxicity call was “inactive”.
`CC1=CC(C)(C)N(C(=O)Nc2ccc(C)cc2)c2ccccc21` was tested, and the cytotoxicity call was “inactive”.
In the case of `COc1cccc(C#Cc2ccc3c(c2)O[C@H](CN(C)C(=O)c2ccccn2)[C@H](C)CN([C@@H](C)CO)S3(=O)=O)c1`, the cytotoxicity call was “inactive”.
For `O=C1NCCN1c1ncc([N+](=O)[O-])s1`, the cytotoxicity call was “inactive”.
For `O=C(C[C@@H]1CC[C@@H]2[C@H](COC[C@H](O)CN2S(=O)(=O)c2ccccc2F)O1)N1CCC(Cc2ccccc2)CC1`, the cytotoxicity call was “inactive”.
`CC(C)Oc1ccc2c(=O)c(-c3ccccc3)coc2c1` was tested, and the cytotoxicity call was “inactive”.
For `N[C@@H](Cc1ccc(F)cc1)C(=O)O`, the cytotoxicity call was “inactive”.
`CC(C)NC(=O)N(C)C[C@H]1Oc2ccc(NS(=O)(=O)c3ccc(F)cc3)cc2CC(=O)N([C@@H](C)CO)C[C@H]1C` was tested, and the cytotoxicity call was “inactive”.
For `O=C(C[C@@H]1CC[C@@H]2[C@H](COC[C@H](O)CN2C(=O)c2ccc3c(c2)OCO3)O1)NCCN1CCCCC1`, the cytotoxicity call was “inactive”.
`Oc1cccc(c1)/C/1=C/2\CC/C(=C(\c3cccc(c3)O)c3ccc([nH]3)/C(=C\3/C=CC(=N3)/C(=C\3/C=CC1=N3)c1cccc(c1)O)c1cccc(c1)O)N2` was tested, and the cytotoxicity call was “active”.
For `C[C@@H]1CN([C@H](C)CO)C(=O)c2cc(NC(=O)Nc3ccccc3)ccc2O[C@H]1CN(C)Cc1ccc(Oc2ccccc2)cc1`, the cytotoxicity call was “inactive”.
In the case of `Cc1cccc(NC(=O)C(C)C)c1`, the cytotoxicity call was “inactive”.
`CO[C@@H](CN(C)S(=O)(=O)c1ccc(C)cc1)[C@@H](C)CN([C@@H](C)CO)S(=O)(=O)c1cccc(Cl)c1` was tested, and the cytotoxicity call was “inactive”.
`C[C@H]1CN([C@@H](C)CO)C(=O)c2ccccc2-c2ccccc2CO[C@H]1CN(C)Cc1cccc(C(F)(F)F)c1` was tested, and the cytotoxicity call was “inactive”.
In the case of `C[C@H](CO)N1C[C@H](C)[C@H](CN(C)CC2CCCCC2)Oc2c(NC(=O)Nc3ccccc3)cccc2C1=O`, the cytotoxicity call was “inactive”.
With `C[C@H](CO)N1C[C@H](C)[C@H](CN(C)C(=O)CN2CCOCC2)Oc2ncc(C#C[C@@H](C)O)cc2C1=O` the cytotoxicity call was “inactive”.
